# Inconclusive results, whose numbers are uncertain, are shown with a selection of clear calls. For some of these results: Where the call is inconclusive, the potency comes from a doubtful curve fit. The source made the active and inactive calls. The call rests on the fitted dose curve; in most records, active means well fitted curve in the direction sought with a large enough effect; inconclusive means small, poorly fitted or top-dose-only effect, or another doubt; inactive means no such curve, though single readings can be large; an effect the other way counts as inactive or inconclusive.
# Assays:
# OV90 = experiment: Primary qHTS to identify gynecologic anti-cancer compounds using libraries of approved drugs and bioactive compounds (AID 1345084); settings: Gynecologic cancer cell panel viability, ATPlite luminescence, 48 h; series mostly up to 57.5 µM; further: nearly all actives have a fitted effect of over 55% in size
# How it was run: (§1)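 Cells, 1,000 per well, were allowed to settle for 16 h at 37 C before compound addition. Five concentrations were tested for 48 h, and viability was read by ATPlite luminescence after 15 min at room temperature.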
# PA-1 = experiment: as above; settings: Gynecologic cancer cell panel viability, ATPlite luminescence, 48 h; series mostly up to 57.5 µM
# How it was run: as §1
# Tov-21-G = experiment: as above; settings: Gynecologic cancer cell panel viability, ATPlite luminescence, 48 h; series mostly up to 57.5 µM
# How it was run: as §1
# SKOV3 = experiment: as above; settings: Gynecologic cancer cell panel viability, ATPlite luminescence, 48 h; series mostly up to 57.5 µM
# How it was run: as §1
# astro = experiment: Drug repurposing screens with cells derived from glioblastoma tumor samples (AID 1345199); settings: viability, ATP luminescence, 48 h; series mostly up to 45.9 µM; further: nearly all actives have a fitted effect of over 40% in size
# How it was run: (§2)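 Primary testing used CD133+ neurospheres from four GBM patients, seven concentrations, 48 h exposure and ATP-based viability; confirmation added three slower-growing patient lines.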
# [1] = as above; settings: GBM patient neurospheres viability, ATP luminescence, 48 h; Potency: tumour line A unless noted; series mostly up to 46 µM
# How it was run: as §2
# JEG-3 = experiment: Primary qHTS to identify gynecologic anti-cancer compounds using libraries of approved drugs and bioactive compounds (AID 1345084); settings: Gynecologic cancer cell panel viability, ATPlite luminescence, 48 h; series mostly up to 57.5 µM; further: nearly all actives have a fitted effect of over 55% in size
# How it was run: as §1
# Potency means the concentration at half of the fitted maximal effect; tags describe the fitted curve by direction and shape.
compound,measurement,setting,value
CCOC(=O)C1=C(N)Oc2ccc(Br)cc2C1C(C#N)C(=O)OCC (stereo unspecified),Potency,OV90,inactive
same,Potency,PA-1,"inconclusive: 20 µM [rising, partial curve, poor fit]"
same,Potency,Tov-21-G,inactive
CCC(C)n1ncn(-c2ccc(N3CCN(c4ccc(OC[C@H]5CO[C@](Cn6cncn6)(c6ccc(Cl)cc6Cl)O5)cc4)CC3)cc2)c1=O (stereo partly specified),Potency,OV90,"inconclusive: 6.31 µM [cytotoxic, single point]"
same,Potency,PA-1,"inconclusive: 15.8 µM [cytotoxic, single point]"
same,Potency,SKOV3,"inconclusive: 1 µM [rising, partial curve, poor fit]"
same,Potency,astro,"inconclusive: 5.01 µM [inhibitor, full curve]"
O=C(C1CCCCC1)N1CC(=O)N2CCc3ccccc3C2C1 (stereo unspecified),Potency,OV90,inactive
same,Potency,[1],"inconclusive: 35.5 µM [inhibitor, partial curve, poor fit]"
CCN1C[C@H](C)n2c(c(O)c3c(=O)n(Cc4ccc(F)c(Cl)c4)nc(C(=O)NC)c32)C1=O,Potency,PA-1,"inconclusive: 39.8 µM [rising, single point]"
same,Potency,SKOV3,"inconclusive: 0.891 µM [cytotoxic, single point]"
OC(CN1CCN(c2cccc(Cl)c2)CC1)C(c1ccccc1)c1ccccc1 (stereo unspecified),Potency,PA-1,inactive
CCN(CCO)CCCC(C)Nc1ccnc2cc(Cl)ccc12 (stereo unspecified),Potency,OV90,"inconclusive: 3.98 µM [cytotoxic, single point]"
CC(C)OC(=O)C(C(=O)OC(C)C)=C1SC=CS1,Potency,JEG-3,"inconclusive: 3.55 µM [rising, single point]"
same,Potency,SKOV3,active: 25.1 µM
O=C(O)c1cc(=O)[nH]c(=O)[nH]1,Potency,PA-1,inactive
